Reference: patent US20160340422A1 (published 2016)
Blank lines part the entries; values can stand above or below the binder they belong to.

Columns and labels:
Human IL-17A = Human IL-17A (human, UniProt Q16552 24-155); assay: ELISA
Mouse IL-17A = biological target: T1, Mouse IL-17A (mouse, UniProt Q62386 26-158); assay: ELISA
T1 chain: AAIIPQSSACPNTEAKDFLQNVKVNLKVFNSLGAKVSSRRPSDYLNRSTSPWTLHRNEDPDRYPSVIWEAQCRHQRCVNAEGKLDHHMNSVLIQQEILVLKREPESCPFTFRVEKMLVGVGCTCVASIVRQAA

Chain of Human IL-17A (Q16552 24-155): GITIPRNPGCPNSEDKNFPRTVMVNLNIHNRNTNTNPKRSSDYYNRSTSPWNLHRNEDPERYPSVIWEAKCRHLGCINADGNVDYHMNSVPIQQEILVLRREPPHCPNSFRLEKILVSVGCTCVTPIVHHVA

EC50 (Human IL-17A): 0.116 nM
EC50 (Mouse IL-17A): 0.108 nM
B1: Bifunctional fusion protein A (other)
heavy: [about 120 residues skipped]GGGSGGGGSGGGGSGGGGSGGGGSQVQLKESGPGLVQPSQTLSLTCTVSGFSLTNYYVHWVRQPPGKGLEWMGGVWNDGDTSYNSVLRSRLSITRDTSKSQVLLKMSSLQTEDTATYYCAREGREGFVGYYVMDAWGPGASVTVSSAKTTAPSVYPLAPVCGDTTGSSVTLGCLVKGYFPEPVTLTWNSGSLSSGVHTFPAVLQSDLYTLSSSVTVTSSTWPSQSITCNVAHPASSTKVDKKIEPRGPTIKPCPPCKCPAPNLLGGPSVFIFPPKIKDVLMISLSPIVTCVVVDVSEDDPDVQISWFVNNVEVHTAQTQTHREDYNSTLRVVSALPIQHQDWMSGKEFKCKVNNKDLPAPIERTISKPKGSVRAPQVYVLPPPEEEMTKKQVTLTCMVTDFMPEDIYVEWTNNGKTELNYKNTEPVLDSDGSYFMYSKLRVEKKNWVERNSYSCSVVHEGLHNHHTTKSFSRTPGK
light: DIQMTQSPSFLSASVGERVTLSCKASQNINKYLDWFQQKLGEAPKLLIYNADNLHTGIPSRFSGSGSFSDFILTISSLQPEDDATYFCLQRESWPYTFGAGTKLELKRADAAPTVSIFPPSSEQLTSGGASVVCFLNNFYPKDINVKWKIDGSERQNGVLNSWTDQDSKDSTYSMSSTLTLTKDEYERHNSYTCEATHKTSTSPIVKSFNRNEC

EC50 (Human IL-17A): 0.11 nM
EC50 (Mouse IL-17A): 0.124 nM
B2: Bifunctional fusion protein C (other)
heavy: QVQLKESGPGLVQPSQTLSLTCTVSGFSLTNYYVHWVRQPPGKGLEWMGGVWNDGDTSYNSVLRSRLSITRDTSKSQVLLKMSSLQTEDTATYYCAREGREGFVGYYVMDAWGPGASVTVSSAKTTAPSVYPLAPVCGDTTGSSVTLGCLVKGYFPEPVTLTWNSGSLSSGVHTFPAVLQSDLYTLSSSVTVTSSTWPSQSITCNVAHPASSTKVDKKIEPRGPTIKPCPPCKCPAPNLLGGPSVFIFPPKIKDVLMISLSPIVTCVVVDVSEDDPDVQISWFVNNVEVHTAQTQTHREDYNSTLRVVSALPIQHQDWMSGKEFKCKVNNKDLPAPIERTISKPKGSVRAPQVYVLPPPEEEMTKKQVTLTCMVTDFMPEDIYVEWTNNGKTELNYKNTEPVLDSDGSYFMYSKLRVEKKNWVERNSYSCSVVHEGLHNHHTTKSFSRTPGK
light: [about 120 residues skipped]GGGSGGGGSGGGGSGGGGSGGGGSDIQMTQSPSFLSASVGERVTLSCKASQNINKYLDWFQQKLGEAPKLLIYNADNLHTGIPSRFSGSGSFSDFILTISSLQPEDDATYFCLQRESWPYTFGAGTKLELKRADAAPTVSIFPPSSEQLTSGGASVVCFLNNFYPKDINVKWKIDGSERQNGVLNSWTDQDSKDSTYSMSSTLTLTKDEYERHNSYTCEATHKTSTSPIVKSFNRNEC
